Consider 62 compounds from PubChem BioAssay AID1508623 (National Center for Advancing Translational Sciences (NCATS), 2021).

In all, about 48,000 compounds went through this assay and about 450 (0.94%) were called active. About 19% were inconclusive and are not listed. Calls come from the whole dose curve; as a rule, active = well fitted inhibition curve with a large enough effect; inconclusive = small, poorly fitted or top-dose-only effect; inactive = no such curve, though single readings can be large or run the other way. The list shows a part of the results.

The assay in a line: Primary qHTS for Identification of Small Molecule Inhibitors of Huntingtin Promoter Activity. Note: nearly all actives have a fitted effect of over 50% in size. The settings on record: HEK293 HTT promoter firefly luciferase reporter (activity 0% = vehicle and -100% = no light), 24 h; series mostly up to 57.5 µM; activity change, negative = inhibition: at the top concentration. The procedure, abridged: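 Firefly luciferase signal from promoter-reporter HEK293 cells was scaled between vehicle (0%) and zero RLU (-100%). Compounds were tested at final concentrations of up to 57.5 uM over 24 h at 37 degrees C. PTC124 at 50 uM final served as control inhibitor.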
Turning to `O=C(O)c1ccc2c(c1)N(Cc1ccc(F)cc1Cl)C(=O)c1ccccc1S2`, the “activity change, negative = inhibition” value was inactive: -17.4%. Consider `COc1ccc(NC(=O)CCS(=O)(=O)c2nc(-c3ccc4c(c3)OCO4)cc(C(F)(F)F)n2)c(OC)c1`, for which the “activity change, negative = inhibition” value is inactive: -6.11%.

Regarding `CC(CNC(=O)CCCn1c(=O)c2cccn2c2ccccc21)c1ccccc1` (configuration not stated), the “activity change, negative = inhibition” value was inactive: -11.5%. To `CC(C)N(Cc1ccccc1)C(=O)CN1C(=O)COc2ccc(S(=O)(=O)N3CCCCCC3)cc21` belongs inactive: -14.4%; to `CCN(C(=O)c1cnc(N2CCOCC2)c2ccccc12)c1cc(C)ccc1C`, inactive: -11.2%. To `CCOc1ccccc1NC(=O)c1ccc2c(Cl)c3c(nc2c1)CCCC3` belongs inactive: 0.767%. On to `Nc1nc(=O)n([C@H]2CSC(CO)O2)cc1F` (some centres not stated), for which the “activity change, negative = inhibition” value was inactive: -2.08%. To `CCOc1ccc(-c2nnc(SCC(=O)NCCc3ccccc3)nc2-c2ccc(OCC)cc2)cc1` belongs inactive: 4.26%; to `COc1cccc(CNc2nc3c(-c4cccc(C)c4)nnn3c3ccccc23)c1`, inactive: 1.94%. `CC(=O)Nc1ccc(NC(=O)CCC(=O)c2ccc(C)cc2)cc1`: the “activity change, negative = inhibition” value was inactive: -8.47%. To `O=C(OCc1cc(=O)n2nc(-c3cccs3)sc2n1)c1ccccc1Br` belongs inactive: -2.6%; to `Cc1cc(NC(=O)C(C)(C)Oc2ccc(Cl)cc2)cc(-c2nc3ncccc3o2)c1O`, inactive: -10.5%; to `Cc1cc(C)cc(C(=O)Nc2nnc3n2CCS3)c1`, inactive: 15.3%. Consider `COC(=O)c1cc(NC(=O)c2ccc3c(c2)N(Cc2cccc(Cl)c2)C(=O)c2ccccc2S3=O)cc(C(=O)OC)c1` (configuration not stated), for which the “activity change, negative = inhibition” value is inactive: -12%. The result for `O=C(CSc1ncc2c(n1)-c1cc(Cl)ccc1N(Cc1ccccc1F)S2(=O)=O)Nc1cccc(C(F)(F)F)c1` reads inactive: -20.4%; that for `CCCn1c2ccccc2c2cnn(CC(=O)Nc3ccc(C)cc3Br)c(=O)c21`, inactive: -8.6%; that for `Cc1cc2ccccc2n2c(SCC(=O)Nc3cccc(C(F)(F)F)c3)nnc12`, inactive: -17.7%.

Take `CNc1oc(-c2ccc(COc3ccc(C)cc3)o2)nc1C#N`: the “activity change, negative = inhibition” value was inactive: -22.4%.

Regarding `CCOc1ccccc1NC(=O)c1cnc(N2CCOCC2)c2ccccc12`, the “activity change, negative = inhibition” value was inactive: -1.22%. As to `COc1ccc(OCc2nc3c4c(-c5ccc(OC)cc5)c(-c5ccc(OC)cc5)oc4ncn3n2)cc1`, the “activity change, negative = inhibition” value was inactive: -7.13%. To `CCc1ccc(NC(=O)c2sc3nc(C)c(Cl)c(C)c3c2NC(=O)c2ccccc2)cc1` belongs inactive: 14.5%. The result for `Cc1cccc(CNC(=O)c2sc3ncnc(N(C)C4CCCCC4)c3c2C)c1` reads inactive: -28.2%. Regarding `O=C(C1CC1)N1CCN(c2nc3c(F)cc(F)cc3s2)CC1`, the “activity change, negative = inhibition” value is inactive: 37.8%. Regarding `CCN(CC)c1nc(-c2ccccc2Cl)c2cc(Br)ccc2n1`, the “activity change, negative = inhibition” value was inactive: -7.66%. With `Cc1nn(-c2ccccc2)c2nc(C3CC3)cc(C(=O)NCc3ccccc3Cl)c12`, the “activity change, negative = inhibition” value is inactive: -18.2%. For `CC(C)Nc1ccc(-c2nc(-c3ccccn3)no2)cc1[N+](=O)[O-]`, the “activity change, negative = inhibition” value is inactive: 13.7%. With `O=S(=O)(c1ccc(-c2cnc(C3CC3)o2)cc1)N1CCN(c2cccc(Cl)c2)CC1`, the “activity change, negative = inhibition” value is inactive: 9.69%. The result for `CCOc1ccccc1C(=O)Nc1cc(-c2ccc(C)cc2)no1` reads inactive: 10.7%; that for `Cc1cccc(S(=O)Cc2ccc(C(=O)NC3CCCCCC3)o2)c1` (configuration not stated), inactive: -3.92%; that for `Cc1ccc(C(=O)Nc2ccc(C(=O)OCc3cc(=O)n4c5c(sc4n3)CCCC5)cc2)cc1`, inactive: -18.7%. Regarding `Cc1ccc2c(c1)c(=O)c(S(=O)(=O)c1ccc(C)c(C)c1)cn2CC(=O)Nc1ccccc1`, the “activity change, negative = inhibition” value is inactive: -22.3%. To `CCc1cccc(C)c1NC(=O)C1=C(C)C(=O)OC12CCC(C)CC2` (configuration not stated) belongs inactive: -6.91%; to `CC[N+](CC)(CCNC(=O)C(=O)NCC[N+](CC)(CC)Cc1ccccc1Cl)Cc1ccccc1Cl`, inactive: 12.7%.

For the compound `COc1ccccc1Nc1ncc(C(=O)Nc2ccc(OC)c(OC)c2)c2ccccc12`, the “activity change, negative = inhibition” value was inactive: -9.93%. To `Cc1ccc(Nc2ncnc3c2nc2n3CCCC2)c(Br)c1` belongs inactive: -36.2%; to `COc1ccccc1CNC(=O)c1cnc2sc(N3CCOCC3)nn2c1=O`, inactive: 8.99%; to `COC(=O)c1cc(S(=O)(=O)N2CCN(c3ccc(F)cc3)CC2)cn1C`, inactive: -22.4%.

For `COc1ccccc1CNC(=O)c1ccc2c(c1)CCN2S(=O)(=O)c1ccc(Cl)cc1`, the “activity change, negative = inhibition” value is inactive: -30.6%. The result for `COc1ccc2nc(N(Cc3cccnc3)C(=O)COc3ccccc3)sc2c1` reads inactive: -3.78%.

Regarding `Cn1cc(C(=O)NCCc2ccc(Cl)cc2)c(=O)c2cc(S(=O)(=O)N3CCCCC3)ccc21`, the activity change, negative = inhibition is inactive: -17.8% [at 11.5 µM]. Take `COC(=O)c1ccc(Cn2nnc3c(=O)[nH]c(C4CCCN(S(=O)(=O)c5ccccc5)C4)nc32)cc1` (configuration not stated): the “activity change, negative = inhibition” value is inactive: -1.19%. To `CCCC(CCC)C(=O)Nc1cccc(-c2nc3cccnc3s2)c1` belongs inactive: -2.55%; to `CCc1ccccc1NC(=O)N1CCC2(CC1)Oc1ccccc1C(=O)N2Cc1ccccc1F`, inactive: -13.2%; to `CC(=O)Nc1ccc(NS(=O)(=O)c2ccc3[nH]c4c(c3c2)CCCCC4)cc1`, inactive: -35.6%.

Take `CCCCC1C(=O)N(c2ccccc2)N(c2ccccc2)C1=O`: the “activity change, negative = inhibition” value was inactive: -2.07%. For `COc1cc(OC)c(NC(=O)N2CCN3CCCCC3C2)cc1Cl` (configuration not stated), the “activity change, negative = inhibition” value is inactive: -4.39%.

For `CCOC(=O)c1ccccc1NC(=O)CSc1cc(C)[nH]c(=O)n1`, the “activity change, negative = inhibition” value was inactive: -3.65%. To `COc1ccc(Cl)cc1NC(=O)CCN1C(=O)c2ccccc2Sc2ncccc21` belongs inactive: -14.7%. On to `CC(=O)N1CCc2cc(S(=O)(=O)NC(CC(C)C)C(=O)NCCc3ccccc3)ccc21` (configuration not stated), for which the “activity change, negative = inhibition” value is inactive: -9.02%. To `CC(C)C(=O)N1c2nc(C(C)C)nn2C2(CCCCC2)[C@@H]2CCCC[C@@H]21` belongs inactive: -0.391%; to `Cc1cc(C)c2c(=O)cc(CSc3nnc(-c4ccccc4)n3C)[nH]c2c1`, inactive: -20.1%; to `Cc1ccc(Nc2nc3ccccc3c3nnc(C)n23)cc1Cl`, inactive: -3.06%. For `COc1ccc(OC)c(Nc2ncc3c(n2)CCN(Cc2cc(OC)c(OC)c(OC)c2)C3)c1`, the “activity change, negative = inhibition” value was inactive: -24.4%.

In the case of `COc1cc(-c2nnc(SCC(=O)Oc3ccccc3)o2)cc(OC)c1OC`, the “activity change, negative = inhibition” value was inactive: 4.31%. On to `CSCCC(NS(=O)(=O)c1cccs1)C(=O)Nc1ccc(C)c(Cl)c1` (configuration not stated), for which the “activity change, negative = inhibition” value was inactive: 4.12%. To `COC(=O)c1ccc(Cn2c(SCC(=O)NCc3ccccc3)nc3ccccc32)cc1` belongs inactive: -7%. To `O=C(CO)[C@@H](O)[C@H](O)[C@@H](O)CO` belongs inactive: 7.65%; to `CC(=O)c1ccc(NC(=O)CSc2nnc(NC(=O)Nc3ccccc3)s2)cc1`, inactive: 13.3%. The result for `COc1ccc(Cl)cc1NC(=O)c1ncn(-c2ccccc2)n1` reads inactive: -7.61%; that for `COc1ccc(OC)c(NC(=O)Cc2c(C)n(C(=O)c3ccc(Cl)cc3)c3ccc(OC)cc23)c1`, inactive: -10.4%; that for `CC(=O)c1cccc(NC(=O)CN2C(=O)c3cccnc3Sc3ccccc32)c1`, inactive: 4.36%.

As for `CCc1ccc(NC(=O)Cn2c(=O)n(-c3ccccc3)c(=O)c3ccc(C(=O)NCc4ccc5c(c4)OCO5)cc32)cc1`, the “activity change, negative = inhibition” value was inactive: -28.4%.
